PubChem BioAssay AID894 (National Center for Advancing Translational Sciences (NCATS), 2007)
Where “and” joins values, the source holds several entries; their conditions need not be identical. Equal values may be shown once. The whole screen tested about 150,000 compounds, of which about 6,500 (4.3%) were called active. This list was built around the results that the source calls inconclusive (neither active nor inactive); the mix of calls is not that of the screen. Calls come from the whole dose curve; as a rule, active = well fitted inhibition curve with a large enough effect (not every such curve was filed as active); inconclusive = small, poorly fitted or top-dose-only effect, or another doubt; inactive = no such curve, though single readings can be large or run the other way. No potency is given beside an inconclusive call; the fits are too rough.
% is set by controls: 0 for no effect and ±100 for the full control effect; potency is the fitted concentration of half-maximal effect; tags give direction and shape of the fitted curve.

These compounds were tested against 15-hydroxyprostaglandin dehydrogenase [NAD(+)] (Homo sapiens) (UniProt P15428) (assay: qHTS Assay for Inhibitors of HPGD (15-Hydroxyprostaglandin Dehydrogenase)). Details: purified HPGD, NADH fluorescence kinetic, PGE2 substrate; activity change, negative = inhibition: stronger effect = lower value.
Sequence of UniProt P15428 (P15428 whole entry, looked up): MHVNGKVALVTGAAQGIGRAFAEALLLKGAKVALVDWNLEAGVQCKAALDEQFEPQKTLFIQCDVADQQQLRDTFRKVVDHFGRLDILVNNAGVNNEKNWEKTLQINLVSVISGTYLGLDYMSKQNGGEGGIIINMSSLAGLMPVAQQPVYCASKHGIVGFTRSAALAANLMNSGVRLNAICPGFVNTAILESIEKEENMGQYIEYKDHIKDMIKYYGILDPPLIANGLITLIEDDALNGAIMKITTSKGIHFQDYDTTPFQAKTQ
How it was run: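 20 nM HPGD preincubated 15 min at room temperature with compound in 50 mM Tris-HCl pH 8, 0.01% Tween 20. Started with 1 mM NAD+ and 30 uM prostaglandin E2; NADH fluorescence (360/450 nm) read 5 times over 30-s intervals, last minus first.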
With S=c1[nH]nc(-c2ccncc2)n1/N=C/c1cccc2ccccc12 the Potency was active: 0.316 µM.
In the case of O=C(O)C1CCN(c2ncnc3ccc(-c4ccccc4C(F)(F)F)cc23)CC1, the Potency is reported as active: 1.26 µM.
COC(=O)c1ccc(NC(=O)CSc2ccccn2)cc1 was tested, and the Potency was active: 11.2 µM.
For COc1ccccc1/C=C/C(=O)c1ccc(Cl)cc1, the Potency was inconclusive [inhibitor, partial curve].
COc1cc(S(=O)(=O)N2CCOCC2)cc(C(=O)c2nccn2C)c1OC was tested, and the activity change, negative = inhibition was inactive: -1.04%.
In the case of O=C(Nc1ccc(N2CCCC2)cc1)c1ccc(Br)o1, the activity change, negative = inhibition is reported as inactive: -8%.
With CCC(CC)NC(=O)CON=C1c2ccccc2-c2ccccc21 the Potency was active: 7.94 µM.
With CC1(C(=O)N(CC(=O)NC2CCCC2)Cc2ccco2)CC(=O)N=C2C=CC=CN21 (stereo not given) the Potency was inconclusive [inhibitor, partial curve].
With Cc1ccc(C(=O)Nc2nc(C)c(C(=O)Nc3ccc4c(c3)CCC4)s2)cc1 the Potency was inconclusive [inhibitor, single point].
In the case of COc1ccc(CC(=O)NCc2cccs2)cc1, the activity change, negative = inhibition is reported as inactive: -28.4%.
With COc1ccc(C(=O)NC(=S)N2CCN(c3ccc([N+](=O)[O-])cc3)CC2)cc1 the activity change, negative = inhibition was inactive: -9.27%.
For CCC(=O)Nc1ccc(Oc2ccc3c(c2)C(=O)NC3=O)cc1, the Potency was active: 15.8 µM.
For c1ccc2nc3[nH]cnc3nc2c1, the Potency was inconclusive [inhibitor, partial curve].
For COc1cccc2cc(C(=O)NCc3ccccn3)c(=O)oc12, the Potency was inconclusive [inhibitor, partial curve].
CCOC(=O)C(C(=O)OCC)C1CS(=O)(=O)CC1C(C(=O)OCC)C(=O)OCC (stereo not given) was tested, and the activity change, negative = inhibition was inactive: 5.54%.
O=C(O)c1cccc(N2CCCC2)c1 was tested, and the Potency was inconclusive [inhibitor, partial curve].
For Cc1ccc(NC(=O)C2C3/C=C\CCCCC32)cc1C (stereo not given), the activity change, negative = inhibition was inactive: -6.92%.
For CCC(C)/C(C)=N/NC(=O)c1ccc(CSc2nc3ccccc3s2)cc1 (stereo not given), the Potency was active: 20 µM.
In the case of CCN(CC)S(=O)(=O)c1ccc2[nH]cc(C(=O)NCCN3CCCCCC3)c(=O)c2c1, the Potency is reported as inconclusive [inhibitor, partial curve].
With CC(=O)C1=C(C)Nc2cc(C(F)(F)F)ccc2S1 the Potency was inconclusive [inhibitor, partial curve].
In the case of Cc1ccc(-c2nnc(-c3ccccc3S(=O)(=O)Cc3ccc(Cl)cc3)o2)cc1, the Potency is reported as inconclusive [inhibitor, partial curve].
With Cc1ccc(C(=O)NNC(=S)NC(=O)COc2ccccc2)cc1 the activity change, negative = inhibition was inactive: -14.8%.
For O=C(CSc1ncnc2sc3c(c12)CCCCC3)NCc1ccco1, the Potency was active: 10 µM.
In the case of Cc1nn(-c2ccccc2)c2sc(C(=O)OCc3nnc(-c4ccccc4)o3)cc12, the Potency is reported as inconclusive [inhibitor, partial curve].
COc1ccc2c(c1)C(=O)N(c1ccccc1OC)C(=O)C2 was tested, and the Potency was active: 8.91 µM.
CCN(CC)CCNC(=O)c1ccccc1N was tested, and the Potency was inconclusive [inhibitor, single point].
With Cc1ccc(-c2cn3cccnc3n2)cc1NC(=O)c1cccs1 the Potency was inconclusive [inhibitor, partial curve].
In the case of COc1ccc(/C=C/C(=O)c2ccc(C)c([N+](=O)[O-])c2)cc1O, the Potency is reported as active: 22.4 µM.
In the case of N#CCCn1c(=O)c(-c2cccs2)nc2cnc(Oc3cccc(Cl)c3)nc21, the Potency is reported as inconclusive [inhibitor, partial curve].
CCC1=Nc2cc(C(=O)NCc3ccco3)ccc2Sc2ccccc21 was tested, and the activity change, negative = inhibition was inactive: -26.9%.
O=C1c2ccccc2C(=O)c2c1ccc1c(=O)n(C3CCCCC3)[nH]c21 was tested, and the Potency was active: 14.1 µM.
CC(=O)C1=C(O)C(=O)N(c2cccc(C(=O)O)c2)C1c1ccccc1F (stereo not given) was tested, and the Potency was inconclusive [inhibitor, partial curve].
For c1ccc(-c2nnc3n2CCCC3)cc1, the Potency was active: 14.1 µM.
For Cc1cc(N2CCOCC2)nc2ccccc12, the Potency was inconclusive [inhibitor, single point].
With COc1ccc(-c2cc(C(F)F)n3ncc(C(=O)N4CCN5CCCC5C4)c3n2)cc1 (stereo not given) the Potency was inconclusive [inhibitor, partial curve].
COc1ccc2nc(-c3ccc(N)cc3)[nH]c2c1 was tested, and the Potency was inconclusive [inhibitor, partial curve].
For COc1ccc(-c2ccc3c(N)c(C(=O)c4cccc(OC)c4)sc3n2)cc1, the Potency was inconclusive [inhibitor, single point].
For CCc1ccccc1NC(=O)c1ccc(-n2c(C)ccc2C)cc1, the Potency was active: 15.8 µM.
With O=C(O)c1ccc(-n2c(-c3cc(-c4ccco4)[nH]n3)n[nH]c2=S)cc1 the Potency was inconclusive [inhibitor, single point].
In the case of CN(C)S(=O)(=O)c1cccc(-c2nnc(SCc3cc(Cl)cc4c3OCOC4)n2N)c1, the Potency is reported as active: 7.08 µM.
With CCC(OC(=O)c1nsc(Cl)c1Cl)C(=O)NCc1ccco1 (stereo not given) the Potency was active: 10 µM.
CC(C)=C1C(=O)NN(c2ccc(C)c(Cl)c2)C1=O was tested, and the Potency was active: 15.8 µM.
With COC(=O)c1ccc(CSc2nnc(Nc3ccccc3OC)s2)o1 the activity change, negative = inhibition was inactive: -20.9%.
Cc1ccc2cc(CN(Cc3cccs3)Cc3nnnn3CC3CCCO3)c(=O)[nH]c2c1C (stereo not given) was tested, and the Potency was inconclusive [inhibitor, single point].
With O=C(NCCc1ccccc1)c1cc2sccc2n1Cc1ccccc1 the Potency was active: 15.8 µM.
With CC(=O)N(C)c1nc(-c2ccc(Cl)cc2)cs1 the activity change, negative = inhibition was inactive: -9.09%.
With COc1cc(/C=C/C(=O)OCC(=O)Nc2ccccc2Sc2ccc(Cl)cc2)ccc1O the Potency was inconclusive [inhibitor, partial curve].
For O=C(C1CCN(c2nnc(-n3cccc3)s2)CC1)N1CCc2ccccc2C1, the Potency was active: 14.1 µM.
With O=C(Nc1ccc(Cl)cc1C(=O)Nc1ccc(Br)cn1)c1ccco1 the Potency was inconclusive [inhibitor, single point].
c1ccc(-n2nnnc2SCc2cn3cccnc3n2)cc1 was tested, and the Potency was inconclusive [inhibitor, partial curve].
In the case of C[C@@H](C(=O)Nc1ccc2ccccc2c1)[C@H]1C[C@]1(C)[C@H](NC(=O)OCc1ccccc1)c1ccccc1, the activity change, negative = inhibition is reported as inactive: -24.1% and inactive: -23.5%.
In the case of CS(=O)(=O)N1CCc2cc(C(=O)N3CCOCC3)ccc21, the activity change, negative = inhibition is reported as inactive: -17.9%.
For Oc1ccc(C=Nc2ccccc2-c2nc3ccccc3[nH]2)cc1, the Potency was inconclusive [inhibitor, partial curve].
In the case of O=C(/C=C/c1ccc2c(c1)OCO2)NCCSCc1cccc(Cl)c1, the Potency is reported as inconclusive [inhibitor, full curve].
With Cc1cc(C)nc(SCc2nc3ncccn3c2Br)n1 the Potency was inconclusive [inhibitor, partial curve].
For O=C(c1ccccc1)[C@@H]1O[C@H]1c1ccc(-c2ccccc2)cc1, the Potency was inconclusive [inhibitor, full curve, poor fit].
For Cc1ccc(S(=O)(=O)N(C)Cc2ccc(-c3nnco3)cc2)cc1, the Potency was inconclusive [inhibitor, partial curve].
COc1ccc(-c2cc(C(F)(F)F)nc(SCC(=O)NCc3cccs3)n2)cc1 was tested, and the Potency was inconclusive [inhibitor, partial curve].
With CCOC(=O)c1ccc(N=C2NC(=O)CS2)cc1 the Potency was active: 12.6 µM.
With Cc1cc(NC(=O)c2cn(C3CCCCC3)c(=O)c3c2c2ccccc2n3C)no1 the Potency was inconclusive [inhibitor, partial curve].
In the case of CC1CCN(C(=O)c2cc3nc(C4CC4)cc(C(F)(F)F)n3n2)CC1, the Potency is reported as active: 1.26 µM.
With O=C(Nc1ccc(Cl)cc1)OCc1cc(-c2ccccc2Cl)on1 the activity change, negative = inhibition was inactive: -4.41%.
In the case of COCCNC(=O)c1ccc2c(c1)nc(C)n2-c1cccc(F)c1, the Potency is reported as active: 7.08 µM.
With Cc1cccn2c(/C=N/OCc3cccc(F)c3)c(-c3ccc(Cl)cc3)nc12 the Potency was inconclusive [inhibitor, partial curve].
In the case of COc1ccc(-c2[nH]c(-c3ccc(C)cc3)nc2SCC(=O)NCc2ccco2)cc1OC, the activity change, negative = inhibition is reported as inactive: -22.5%.
In the case of CCC(=O)Nc1c(C#N)c2nc3ccccc3nc2n1C1CCCCC1, the Potency is reported as inconclusive [inhibitor, partial curve].
In the case of CS(=O)(=O)n1nc(-c2ccccc2)nc1NCc1ccco1, the Potency is reported as inconclusive [inhibitor, partial curve].
In the case of O=C(CSC1=NCCS1)N1CCOCC1, the activity change, negative = inhibition is reported as inactive: -5.94%.
COc1cc(-c2nc3cnccn3c2Nc2c(C)cccc2C)ccc1O was tested, and the Potency was inconclusive [inhibitor, single point].
With COc1ccc2c(C)cc(SCc3c(C)noc3C)nc2c1 the Potency was inconclusive [inhibitor, partial curve].
In the case of Cc1ccc(NC2(c3nnnn3-c3c(C)cccc3C)CCCCC2)cc1, the activity change, negative = inhibition is reported as inactive: -6.8%.
O=C(NCc1ccco1)/C(=C\c1ccco1)NC(=O)c1ccc(Br)o1 was tested, and the Potency was inconclusive [inhibitor, partial curve].
In the case of C=C(C(=O)c1ccccc1)C(CC(=O)c1ccccc1)c1ccccc1 (stereo not given), the activity change, negative = inhibition is reported as inactive: -13%.
With COc1ccc(-c2c(NC(=O)c3ccco3)n(C)c3ccccc3c2=O)cc1 the activity change, negative = inhibition was inactive: -11.9%.
With Cc1noc(C)c1COC(=O)COc1ccc2c(C)cc(=O)oc2c1 the Potency was inconclusive [inhibitor, partial curve].
